These results are taken from the supplement of paper PMC10986608.

Structures are written as SMILES. The list shows a part of the results. Most values come without repeats; read them as rough.

The test concerns Candida albicans DPL-15. Nature of the test: growth (OD600) after compound treatment (apparently relative to screen median) (relative growth (fraction; screen median 1.02)); DPL-15 is a caspofungin-resistant clinical isolate; higher = more fungal growth (less antifungal activity). Conditions: 25 µM; RPMI 1640; 48 h; 30 °C.
Take `C=CCN1C(=O)C2=C(C(C)=NCCN2C)C1c1ccc2c(c1)OCO2` (stereo unspecified): the growth was determined as 1.11. As to `C=CCN1C(=O)c2[nH]nc(COC)c2C1c1ccc2c(c1)OCO2` (stereo unspecified), the growth is 1.09. For `COC(=O)c1[nH]c2ccc(OC)cc2c1[C@]12CCN(C(=O)c3ccc(OC)cc3)[C@H]1Nc1ccccc12`, the growth was 0.966. For `COc1ccc(COc2c(-c3ccccc3)oc3ccccc3c2=O)cc1OC`, the growth was determined as 1.04.

Regarding `COC(=O)C1=C(C)N(CC#Cc2ccc(OC)cc2)C(=O)NC1c1ccccc1` (stereo unspecified), the growth stood at 0.985. For the compound `CC(=O)OC[C@H]1O[C@H](C#CCC2CCCCC2)C=C[C@H]1OC(C)=O`, the growth came to 0.874.

For the compound `Cc1cc(O)c2c(c1)O[C@]1(C)C(=C(O)CC[C@H]1O)C2=O`, the growth was determined as 0.832.

Turning to `CC(C)=CCc1cc(O)c(O)c2[nH]c3ccccc3c(=O)c12`, the growth came out at 0.785.

Turning to `COc1oc(C)cc(=O)c1-c1ccc([N+](=O)[O-])cc1`, the growth was found to be 1.16. For the compound `CC1=NCC(C)(C)NC2=C1C(c1cccc(C(F)(F)F)c1)N(Cc1ccccc1)C2=O` (stereo unspecified), the growth came to 1.07. `CC(=O)OC[C@H]1O[C@H](c2ccc(C(C)(C)C)cc2)C=C[C@H]1OC(C)=O`: the growth was found to be 0.901. As for `COc1ccc2c(=O)c3cc(C(F)(F)F)ccc3oc2c1OCC=C(C)C`, the growth amounted to 0.955. Turning to `CCOc1c(F)ccc(C2NC(=O)N3CCC=CC3=C2C(C)=O)c1F` (stereo unspecified), the growth amounted to 0.96. Take `CCc1ccc(CCOS(=O)(=O)NC(C)(C)C)cc1`: the growth turned out to be 1.03. On to `CO[C@@H]1[C@H](O)CC[C@]2(O)CN(CC3CCCCC3)[C@](C)([C@H](O)CC=C(C)C)[C@@H]12`, for which the growth turned out to be 1.08.

In the case of `CC(C)Cc1n[nH]c2c1C(c1ccc(F)cc1)N(c1ccc(N(C)C)cc1)C2=O` (stereo unspecified), the growth is 1.11.

Turning to `COc1ccc(N2C(=O)c3[nH]nc(CC(C)C)c3C2c2ccsc2)cc1` (stereo unspecified), the growth amounted to 1.13. Regarding `COc1ccc(Cn2ncc(-c3ccccc3)c2N)cc1`, the growth worked out at 0.775.

Turning to `COCOc1cccc2c(OC)c(C3=C(C(=O)O)[C@@H](OC(C)=O)[C@@]4(C)O[C@H]4[C@H]3OC(C)=O)cc(OC)c12`, the growth came out at 1.03. Turning to `CCOC(=O)CN1C(=O)N[C@@H](CCc2ccccc2)C(C(C)=O)=C1C`, the growth came out at 0.917. As to `COc1cc(CCC(=O)/C=C(\O)CCc2ccc(O)c(OC)c2)ccc1O`, the growth was determined as 0.973. The value for `C[C@@H]1/C=C/CC(=O)OCCCC(=O)N2CCC[C@H]2C(=O)N[C@@H]1c1ccc(Br)cc1` was 0.991; that for `COc1cc(OC)c2c(=O)c3c(CC=C(C)C)ccc(OCC(=O)O)c3oc2c1` was 1.1. On to `CC1(C)O[C@@H]2[C@@H](O1)C(c1ccccc1)(c1ccccc1)OP(=O)(O)OC2(c1ccccc1)c1ccccc1`, for which the growth was determined as 1.04. Turning to `CCC1=CCN(S(=O)(=O)c2ccc(C)cc2)C/C1=C(/c1ccccc1)c1cccc(N(C)C)c1`, the growth is 0.887. Take `CC(=O)C1=C(C)N(Cc2ccccc2)C(=S)NC1c1ccccc1F` (stereo unspecified): the growth was determined as 0.946.

`CCO[C@]1(c2ccc3c(c2)OCO3)Oc2ccc(Cl)cc2C(=O)[C@]12OCC=C2C`: the growth was determined as 0.958. For `COC(=O)C1=C(C)N(C)C(=S)NC1c1cccc(OC)c1` (stereo unspecified), the growth worked out at 1.19.

For the compound `COC(=O)[C@@]12Oc3cccc(O)c3C(OC)=C1C(=O)C[C@H](C)[C@H]2O`, the growth was 1.04.

Take `CNc1ccccc1C(=O)OC/C=C/c1ccccc1`: the growth is 1.11. On to `COC(=O)C1=C(C)N(CC#Cc2ccccc2)C(=O)NC1c1ccccc1` (stereo unspecified), for which the growth stood at 1.17. The value for `CCN1C(NCCCOC(C)C)=N[C@@H](c2cccc(F)c2)C(C(=O)OC)=C1C` was 1.13. With `O=C(Cc1ccc([N+](=O)[O-])cc1)N1Cc2ccccc2C1`, the growth was 1.15. The value for `N#Cc1ccc(S(=O)(=O)N2CCCc3nc(-c4ccccc4)ccc32)cc1` was 0.91; that for `COC(=O)C1=C(C)NC(=O)NC1c1cc(OC)c(OC)c(OC)c1` (stereo unspecified) was 1.17; that for `c1ccc(CCCc2cc(CCCc3ccccc3)nc(CCCc3ccccc3)c2)cc1` was 1.2.

For the compound `COC(=O)C1=C(C)N(CCCOC(C)C)C(NCc2ccccc2)=NC1c1ccccc1` (stereo unspecified), the growth came to 1.28. `COC(=O)Cc1nnn2c1[C@H](C)[C@@H](OC)c1ccc(C(F)(F)F)cc1-2`: the growth was 1.07. The value for `CON(C)C(=O)c1nnc2c3ccccc3n(S(=O)(=O)c3ccc(C)cc3)c2n1` was 0.944. Turning to `CC1=C[C@H](COc2ccc(Br)cc2)O[C@]2(C1)C(=O)Nc1c(F)cccc12`, the growth is 0.809. The value for `COC(=O)C1=C(C(=O)OC)[C@@H]2N(C)c3ccccc3[C@@]23C[C@@H](C(=O)OC)N(C(=O)CC(C)C)C3=N1` was 0.936. The value for `CCc1cc(Nc2cc(O)cc(O)c2C(=O)N2Cc3cn[nH]c3C2)n(Cc2ccc(OC)cc2)n1` was 1.46.

Regarding `C=CCN1C(=O)C2=C(C(c3ccccc3)=NCC(C)(C)N2)C1c1ccccc1` (stereo unspecified), the growth came to 1.04. Take `C#CCN(Cc1ccc(C(=O)c2ccccc2)cc1)CC1CCCN(CCc2ccccc2C)C1` (stereo unspecified): the growth was determined as 0.926. For `CC(=O)OC[C@H]1O[C@H](C#Cc2ccsc2)C=C[C@H]1OC(C)=O`, the growth came out at 1.01. The value for `COc1ccc(CO/N=C2\CCCC/C=C/CCOC(=O)c3c(O)cc(O)c(Cl)c3C2)cc1` was 1.13. Consider `CC(C)Cc1n[nH]c2c1C(c1ccc(F)cc1)N(c1ccccc1N(C)C)C2=O` (stereo unspecified), for which the growth came out at 0.965. The value for `CCCCCCCc1cccc(Cl)n1` was 1.11. The value for `COCCN1C(NCC2CCCCC2)=NC(c2ccccc2)C(C(=O)OC)=C1C` (stereo unspecified) was 1.24; that for `CC1(C)CC(=O)C2=C(C1)O[C@@]1(CCCCN3C(=O)c4ccccc4C3=O)Cc3ccccc3C2O1` was 0.876. `CCCCCNS(=O)(=O)NC(C)(C)C`: the growth came to 1.04. With `CN(Cc1cccnc1)CC1CCCN(CCc2ccccc2)C1` (stereo unspecified), the growth was 0.878.

Take `CC(C)Cc1n[nH]c2c1C(c1ccc(Br)cc1)NC2=O` (stereo unspecified): the growth was 0.843. `CC#CCN1C(=O)N(C(C)=O)C(c2ccccc2)C(C#N)=C1C` (stereo unspecified): the growth came to 0.998. For the compound `CC(C)c1c2c(nn1-c1ccc(OC(F)(F)F)cc1)C(=O)NC2c1ccc2c(c1)OCO2` (stereo unspecified), the growth was determined as 1.04. For the compound `C[C@@H](CO)[C@@H]1CC[C@]2(CO)CC[C@]3(C)[C@H](CC[C@@H]4[C@@]5(C)CC[C@H](O)C(C)(C)[C@@H]5CC[C@]43C)[C@@H]12`, the growth stood at 1.
